This note sets out measurements from PubChem BioAssay AID1347044 (National Center for Advancing Translational Sciences (NCATS), 2019).

The other results are listed elsewhere or left out. Shown are side measurements of this screen, not its main read-out; they come without a call. Most of these compounds were active or inconclusive in the main read-out, so they are no random draw. The note in brackets gives the kind of curve behind each potency; many fits are weak.

Broadly, the CC50 is the concentration giving 50% cytotoxicity. Higher therefore signals better tolerance by the cells.
Tags give direction and shape of the fitted curve.

This test is described as follows: Natriuretic polypeptide receptor (hNpr1) antagonism - Confirmation. Note: nearly all actives have a fitted effect of over 70% in size. The settings on record: HEK293 hNpr1 cGMP GloSensor luminescence, ANP-stimulated; measured here: HEK-hNpr1 cytotoxicity, CellTiter-Glo. In outline: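 Compound (30 min, room temperature) preceded stimulation with hNppA peptide at 0.1 nM final for 20 min. Cells were HEK293 carrying hNpr1 plus GloSensor pGS-40F cGMP biosensor, pre-equilibrated 2 h with 2% substrate; cGMP was followed as luminescence pre- and post-agonist.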
With `Cc1ccc(C2Cn3nnc(C(=O)N4CCN(C(=O)c5cc(Cl)ccc5F)CC4)c3CO2)cc1` (configuration not stated), the CC50 was 21.7 µM [falling, partial curve].

For `CC(C)c1nc(-c2ccc(OC3CCN(C(=O)c4n[nH]c5ccccc45)C3)cc2)no1` (configuration not stated), the CC50 is 24.3 µM [falling, partial curve]. With `CC(C)c1ccc(C(=O)N2CCC(Cc3nc(-c4ccc(F)cc4)no3)CC2)cc1`, the CC50 is 1.72 µM [falling, full curve]. The same measure for `COc1cccc(-c2noc(CC3CCN(C(=O)c4ccc(C)cc4C)CC3)n2)c1`: 17.2 µM [falling, partial curve]; for `O=C(Nc1ccc(Cl)cc1)c1nc2c(o1)CCN(Cc1cccc(F)c1)CC2`: 22.2 µM [falling, partial curve]; for `O=C1c2c(nc(COc3ccc4c(c3)OCO4)n2Cc2ccccc2)NCCN1Cc1ccccc1F`: 21.7 µM [falling, partial curve]. The same measure for `O=C(Nc1ccc(Cl)cc1)c1nc2c(o1)CCN(Cc1ccccc1)CC2`: 22.2 µM [falling, partial curve]. For `O=C1NC2(CCN(Cc3ccc(OC(F)(F)F)cc3)C2)OCc2ccccc21` (configuration not stated) the value was 17.2 µM [falling, partial curve]; for `COc1ccc(C2Cn3nnc(C(=O)N4CCN(C(=O)c5ccc(F)cc5Cl)CC4)c3CO2)cc1` (configuration not stated), 24.3 µM [falling, partial curve]; for `COc1ccc(CN2C=C(C(=O)OCc3noc(-c4ccc(C)cc4)n3)C(C)=NS2(=O)=O)cc1`, 13.7 µM [falling, full curve]. For the molecule `Cc1ccccc1-c1cnc2[nH]cc(CC(=O)NCc3ccco3)c2c1`, the CC50 was 31.4 µM [falling, partial curve]. `O=C(NCc1ccccc1)c1nc2c(o1)CCN(Cc1ccc(F)cc1F)CC2`: the CC50 is 35.3 µM [falling, partial curve].

In the case of `O=C(Oc1ccccc1)N1CCC(Oc2cnc3c(ccn3-c3cncnc3)c2)CC1`, the CC50 was 35.3 µM [falling, partial curve]. The same measure for `Cc1ccc(NC(=O)CCC2CCN(S(=O)(=O)c3ccccc3C)CC2)cc1F`: 24.3 µM [falling, single point]; for `COc1cccc(NC(=O)Cn2c(N(C)Cc3ccccc3)nc(C)cc2=O)c1`: 15.3 µM [falling, partial curve]. The same measure for `CCc1ccc(CNC(=O)C2CCN(c3cc(C(F)(F)F)ncn3)CC2)cc1`: 21.7 µM [falling, partial curve].

For `Cc1oc(C(O)c2ccccc2F)nc1C(=O)Nc1ccccc1C(N)=O` (configuration not stated), the CC50 is 31.4 µM [falling, partial curve].
